# Reference: the supplement of paper PMC12067093, “Discovery and optimisation of a covalent ligand for TRIM25 and its application to targeted protein ubiquitination” (Chemical Science, 2025)
# Of roughly 21,000 targets only a part is listed; those with the largest changes were picked by preference.
# Compound: Cc1cc(ccc1-c1ccccc1)C(=O)N1CCCN(CC1)C(=O)CCl [compound 10]
# Experiment: probe-labelled cysteine peptide fold change vs DMSO (competition) (log2 fold change); higher = less target engagement (more negative = stronger competition)
# Conditions: THP-1, incubation time: 4 h
# 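Also: competitive profiling in live THP-1 cells: cysteine peptides tagged with an iodoacetamide desthiobiotin (IA-DTB) probe, intensity after compound treatment relative to DMSO-treated cells.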
# UniProt O43772, sequence (O43772 whole entry, looked up): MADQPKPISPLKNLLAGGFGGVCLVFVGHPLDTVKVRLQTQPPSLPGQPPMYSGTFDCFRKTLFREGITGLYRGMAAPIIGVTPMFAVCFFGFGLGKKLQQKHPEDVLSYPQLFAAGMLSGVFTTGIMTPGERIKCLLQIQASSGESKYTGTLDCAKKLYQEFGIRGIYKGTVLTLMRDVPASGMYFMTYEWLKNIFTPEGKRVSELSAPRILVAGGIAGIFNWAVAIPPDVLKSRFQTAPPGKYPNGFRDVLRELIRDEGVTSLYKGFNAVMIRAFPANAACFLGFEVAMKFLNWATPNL
# UniProt P13489, sequence (P13489 whole entry, looked up): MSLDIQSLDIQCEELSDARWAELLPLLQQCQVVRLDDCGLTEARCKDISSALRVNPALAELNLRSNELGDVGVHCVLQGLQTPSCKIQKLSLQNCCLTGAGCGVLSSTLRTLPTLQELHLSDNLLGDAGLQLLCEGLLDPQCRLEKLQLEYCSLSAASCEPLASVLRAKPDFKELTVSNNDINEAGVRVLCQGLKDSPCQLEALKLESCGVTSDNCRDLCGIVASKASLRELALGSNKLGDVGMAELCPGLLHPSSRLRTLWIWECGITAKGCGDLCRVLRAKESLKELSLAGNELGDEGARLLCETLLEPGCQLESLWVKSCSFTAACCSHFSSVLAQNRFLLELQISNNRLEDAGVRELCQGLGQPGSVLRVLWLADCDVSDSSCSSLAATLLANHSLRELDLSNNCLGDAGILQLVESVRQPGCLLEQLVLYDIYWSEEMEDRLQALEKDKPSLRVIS
# UniProt Q8ND04, sequence (Q8ND04 whole entry, looked up): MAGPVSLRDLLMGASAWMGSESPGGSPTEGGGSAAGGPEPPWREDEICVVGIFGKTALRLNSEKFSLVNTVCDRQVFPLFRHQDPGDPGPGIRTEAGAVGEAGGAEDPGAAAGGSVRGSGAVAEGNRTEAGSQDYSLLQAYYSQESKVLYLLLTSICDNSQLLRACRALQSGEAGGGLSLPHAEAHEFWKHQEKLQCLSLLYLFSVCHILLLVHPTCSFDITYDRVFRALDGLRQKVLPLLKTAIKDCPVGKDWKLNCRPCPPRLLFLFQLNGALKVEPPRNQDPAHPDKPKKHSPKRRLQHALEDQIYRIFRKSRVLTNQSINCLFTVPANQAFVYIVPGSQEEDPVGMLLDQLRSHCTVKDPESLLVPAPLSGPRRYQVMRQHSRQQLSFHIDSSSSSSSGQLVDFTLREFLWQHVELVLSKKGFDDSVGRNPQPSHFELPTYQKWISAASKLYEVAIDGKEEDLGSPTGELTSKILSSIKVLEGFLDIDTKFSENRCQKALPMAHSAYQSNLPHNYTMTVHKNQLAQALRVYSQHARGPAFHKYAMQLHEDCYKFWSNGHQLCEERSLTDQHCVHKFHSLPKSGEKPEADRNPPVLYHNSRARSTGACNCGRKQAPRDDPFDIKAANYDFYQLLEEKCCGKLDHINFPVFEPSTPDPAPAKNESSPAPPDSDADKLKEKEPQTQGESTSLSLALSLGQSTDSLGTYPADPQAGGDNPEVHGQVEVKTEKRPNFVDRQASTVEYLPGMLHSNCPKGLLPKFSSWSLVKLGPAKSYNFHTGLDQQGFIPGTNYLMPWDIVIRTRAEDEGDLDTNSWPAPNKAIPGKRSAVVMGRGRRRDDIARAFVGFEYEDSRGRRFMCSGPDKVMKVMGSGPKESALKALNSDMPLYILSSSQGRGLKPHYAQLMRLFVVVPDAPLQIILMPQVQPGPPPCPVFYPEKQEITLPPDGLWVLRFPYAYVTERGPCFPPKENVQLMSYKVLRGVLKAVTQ
# UniProt O95487, sequence (O95487 whole entry, looked up): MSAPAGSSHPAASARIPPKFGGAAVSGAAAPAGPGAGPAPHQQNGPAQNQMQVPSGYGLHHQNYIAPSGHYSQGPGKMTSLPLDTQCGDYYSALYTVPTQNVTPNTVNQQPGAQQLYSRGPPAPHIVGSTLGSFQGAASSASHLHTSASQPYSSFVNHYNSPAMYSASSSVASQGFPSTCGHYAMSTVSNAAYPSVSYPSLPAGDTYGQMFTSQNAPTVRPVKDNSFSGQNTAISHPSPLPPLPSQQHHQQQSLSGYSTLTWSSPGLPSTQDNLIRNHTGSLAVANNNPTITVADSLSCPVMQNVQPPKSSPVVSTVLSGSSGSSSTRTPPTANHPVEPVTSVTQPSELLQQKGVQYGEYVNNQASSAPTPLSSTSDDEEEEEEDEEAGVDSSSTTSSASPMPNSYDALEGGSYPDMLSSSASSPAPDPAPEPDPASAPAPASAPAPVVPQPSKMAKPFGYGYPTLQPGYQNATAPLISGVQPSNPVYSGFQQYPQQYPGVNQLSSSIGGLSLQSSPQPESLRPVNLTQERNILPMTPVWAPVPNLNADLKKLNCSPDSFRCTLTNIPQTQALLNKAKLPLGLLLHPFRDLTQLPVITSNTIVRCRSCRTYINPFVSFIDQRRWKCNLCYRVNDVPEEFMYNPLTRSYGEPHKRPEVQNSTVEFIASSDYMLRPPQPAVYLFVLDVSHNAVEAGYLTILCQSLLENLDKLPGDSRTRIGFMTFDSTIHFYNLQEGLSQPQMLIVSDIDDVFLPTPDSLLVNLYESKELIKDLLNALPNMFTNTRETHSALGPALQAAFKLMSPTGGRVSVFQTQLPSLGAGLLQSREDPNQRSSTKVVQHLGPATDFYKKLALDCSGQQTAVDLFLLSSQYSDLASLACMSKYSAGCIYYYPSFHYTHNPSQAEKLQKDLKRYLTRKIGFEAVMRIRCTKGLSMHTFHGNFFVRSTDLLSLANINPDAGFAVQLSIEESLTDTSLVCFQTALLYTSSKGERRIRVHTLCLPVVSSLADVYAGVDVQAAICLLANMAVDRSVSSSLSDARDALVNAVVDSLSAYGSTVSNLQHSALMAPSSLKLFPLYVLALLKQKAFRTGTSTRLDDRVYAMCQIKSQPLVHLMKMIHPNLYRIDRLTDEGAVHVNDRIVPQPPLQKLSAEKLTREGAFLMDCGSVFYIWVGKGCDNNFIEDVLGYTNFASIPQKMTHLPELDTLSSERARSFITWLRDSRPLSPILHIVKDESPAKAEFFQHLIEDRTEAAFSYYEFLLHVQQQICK
# UniProt Q9UBV2, sequence (Q9UBV2 whole entry, looked up): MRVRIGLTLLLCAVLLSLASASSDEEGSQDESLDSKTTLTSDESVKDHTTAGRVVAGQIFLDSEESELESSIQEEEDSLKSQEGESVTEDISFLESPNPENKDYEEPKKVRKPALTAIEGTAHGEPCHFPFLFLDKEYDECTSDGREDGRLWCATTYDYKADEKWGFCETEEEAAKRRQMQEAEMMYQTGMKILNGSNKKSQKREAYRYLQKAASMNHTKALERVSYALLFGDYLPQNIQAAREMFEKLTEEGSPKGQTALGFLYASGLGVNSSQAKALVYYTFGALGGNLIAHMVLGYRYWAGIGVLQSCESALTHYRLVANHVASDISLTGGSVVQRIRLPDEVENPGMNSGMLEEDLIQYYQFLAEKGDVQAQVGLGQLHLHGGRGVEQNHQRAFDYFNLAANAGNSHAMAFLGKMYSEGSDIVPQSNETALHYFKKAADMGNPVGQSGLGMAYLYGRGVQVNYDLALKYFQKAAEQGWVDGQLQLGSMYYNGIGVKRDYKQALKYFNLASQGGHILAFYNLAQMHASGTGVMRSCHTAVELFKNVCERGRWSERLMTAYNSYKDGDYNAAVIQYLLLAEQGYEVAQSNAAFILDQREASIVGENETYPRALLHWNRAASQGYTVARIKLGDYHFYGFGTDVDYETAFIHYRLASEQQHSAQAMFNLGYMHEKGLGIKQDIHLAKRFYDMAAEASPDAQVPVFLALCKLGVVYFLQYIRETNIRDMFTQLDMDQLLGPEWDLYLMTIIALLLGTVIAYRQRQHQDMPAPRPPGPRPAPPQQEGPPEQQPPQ
# UniProt P52788, sequence (P52788 whole entry, looked up): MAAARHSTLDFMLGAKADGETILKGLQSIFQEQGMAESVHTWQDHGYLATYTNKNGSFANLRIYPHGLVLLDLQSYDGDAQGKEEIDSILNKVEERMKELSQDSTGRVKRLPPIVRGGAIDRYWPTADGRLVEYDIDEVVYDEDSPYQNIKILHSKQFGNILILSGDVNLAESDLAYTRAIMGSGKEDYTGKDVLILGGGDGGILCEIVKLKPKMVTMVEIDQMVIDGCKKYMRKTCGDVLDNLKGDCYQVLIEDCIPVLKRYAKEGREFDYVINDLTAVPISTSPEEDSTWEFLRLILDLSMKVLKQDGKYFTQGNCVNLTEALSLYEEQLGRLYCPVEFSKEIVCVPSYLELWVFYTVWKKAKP
# UniProt P50453, sequence (P50453 whole entry): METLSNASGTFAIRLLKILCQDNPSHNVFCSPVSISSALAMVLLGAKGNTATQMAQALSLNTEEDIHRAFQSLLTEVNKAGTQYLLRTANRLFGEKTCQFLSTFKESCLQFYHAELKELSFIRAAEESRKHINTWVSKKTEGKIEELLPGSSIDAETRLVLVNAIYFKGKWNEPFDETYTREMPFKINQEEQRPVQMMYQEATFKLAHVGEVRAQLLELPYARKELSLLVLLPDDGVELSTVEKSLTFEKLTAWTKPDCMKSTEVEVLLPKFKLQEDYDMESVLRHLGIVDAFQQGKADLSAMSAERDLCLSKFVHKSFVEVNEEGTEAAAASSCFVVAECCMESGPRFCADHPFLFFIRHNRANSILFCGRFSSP
# UniProt P21912, sequence (P21912 whole entry, looked up): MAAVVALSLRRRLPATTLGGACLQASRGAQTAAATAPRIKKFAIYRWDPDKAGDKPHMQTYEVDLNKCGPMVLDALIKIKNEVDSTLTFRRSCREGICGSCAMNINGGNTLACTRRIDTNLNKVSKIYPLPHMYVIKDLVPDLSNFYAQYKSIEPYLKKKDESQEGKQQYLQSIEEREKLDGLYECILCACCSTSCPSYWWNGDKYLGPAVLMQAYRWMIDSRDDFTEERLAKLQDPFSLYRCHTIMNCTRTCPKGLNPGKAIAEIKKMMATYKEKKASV
Target,probe-labelled cysteine peptide fold change (10 µM),probe-labelled cysteine peptide fold change (50 µM)
SACM1L_Q9NTJ5_445_NAWADNANACAK (UniProt Q9NTJ5),-0.281,-0.157
RPUSD2_Q8IZ73_502_AVETDVMNQETDPLCAECR (UniProt Q8IZ73),-0.00549,0.19
SAC3D1_A6NKF1_290_LLQTLPYLPSCAVQCHVGHAR (UniProt A6NKF1),-0.0451,-0.0296
RRP9_O43818_460_NSVCIIPLR (UniProt O43818),0.031,0.0169
RPTOR_Q8N122_617_CAAVFALGTFVGNSAER (UniProt Q8N122),0.0641,0.22
SNAP23_O00161_112_TTWGDGGENSPCNVVSK (UniProt O00161),-0.235,-1.08
RTN3_O95197-3_46_SCSSSCAVHDLIFWR (UniProt O95197),-2.6,-2.97
SEC24C_P53992_635_AAECAGK (UniProt P53992),-0.0235,-0.121
SMARCA2_P51531_1296_LMEEDELPSWIIKDDAEVERLTCEEEEEK (UniProt P51531),-0.106,-0.514
RPL10A_P62906_66+74_FSVCVLGDQQHCDEAK (UniProt P62906),0.411,-0.171
RUNDC1_Q96C34_311_TGNGCSR (UniProt Q96C34),0.28,0.474
SEC24D_O94855_819_EILVNQTAHMLACYR (UniProt O94855),-0.0866,0.103
RTN4_Q9NQC3_1101_YSNSALGHVNCTIK (UniProt Q9NQC3),-0.955,-2.07
SAAL1_Q96ER3_144_NLGQVLLHCLYDSDPPTLLETSR (UniProt Q96ER3),0.0958,-0.138
SMARCC1_Q92922_164_TLVQNNCLTRPNIYLIPDIDLK (UniProt Q92922),0.0356,0.0091
RPL24_P83731_36_CESAFLSK (UniProt P83731),-0.167,-0.187
SCCPDH_Q8NBX0_238_RWPISYCR (UniProt Q8NBX0),-0.319,-1.49
SH3RF1_Q7Z6J0_93_QRPWKPGPGGGSGTNCTNALR (UniProt Q7Z6J0),-0.281,-0.663
SLC25A10_Q9UBX3_69_TDGILALYSGLSASLCR (UniProt Q9UBX3),-0.000955,0.6
SEC23A_Q15436_180_MVQVHELGCEGISK (UniProt Q15436),-0.0283,-0.0698
SLC44A1_Q8WWI5_98_KYVFFLDPCNLDLINR (UniProt Q8WWI5),-0.0775,-0.325
SMAD9_O15198_93_GLPHVIYCR<|>SMAD3_Q15796_89_GLPHVIYCR<|>SMAD2_Q99717_129_GLPHVIYCR (UniProt Q99717+Q15796+O15198),0.0352,-0.128
SERBP1_Q8NC51_11_PGHLQEGFGCVVTNR (UniProt Q8NC51),0.124,-0.0591
SMARCAD1_Q9H4L7_407_ILHFLQDASIGELTLIPQCSQK (UniProt Q9H4L7),0.141,0.122

Target,probe-labelled cysteine peptide fold change (10 µM),probe-labelled cysteine peptide fold change (50 µM)
SMC2_O95347_800_KLDCAK (UniProt O95347),-0.0608,-0.933
SAMHD1_Q9Y3Z3_266_WTHEQGSVMMFEHLINSNGIKPVMEQYGLIPEEDICFIK (UniProt Q9Y3Z3),-0.168,0.189
RPS27A_P62979_121+126_ECPSDECGAGVFMASHFDR (UniProt P62979),-0.12,-0.703
SMC3_Q9UQE7_972_LEQCNTELK (UniProt Q9UQE7),0.165,0.484
SAE1_Q9UBE0_134_KPESFFTQFDAVCLTCCSR (UniProt Q9UBE0),,0.105
RPL4_P36578_96_SGQGAFGNMCR (UniProt P36578),-0.227,-0.224
SAE1_Q9UBE0_214_VVFCPVK (UniProt Q9UBE0),-0.0949,-0.106
SDHB_P21912_243_CHTIMNCTR (UniProt P21912),-0.165,-0.17
SEPHS1_P49903_306_ACGNMFGLMHGTCPETSGGLLICLPR (UniProt P49903),-0.122,0.00466
SETX_Q7Z333_688_LEDHLLAGSCLK (UniProt Q7Z333),-0.212,-1.2
RNF213_Q63HN8_614_STDFLPVDCPVR (UniProt Q63HN8),-0.411,-2.4
SDHA_P31040_438+443_HVNGQDQIVPGLYACGEAACASVHGANR (UniProt P31040),-0.14,-0.307
SIRT1_Q96EB6_398_CPADEPLAIMKPEIVFFGENLPEQFHR (UniProt Q96EB6),0.0626,-0.351
SMG8_Q8ND04_611_STGACNCGR (UniProt Q8ND04),-0.0866,-0.204
SHMT1_P34896_389_NTCPGDR (UniProt P34896),0.419,0.998
SMCHD1_A6NHR9_1823_DLLTFPDNVEHCETVFGMLLGDTIILDNLDAANHYR (UniProt A6NHR9),0.0852,0.316
SEL1L_Q9UBV2_539_SCHTAVELFK (UniProt Q9UBV2),0.176,0.261
SHMT2_P34897_241_EVCDEVK (UniProt P34897),-0.00986,0.0271
SLFN11_Q7Z7L1_150_EAFCFLK (UniProt Q7Z7L1),-0.294,-1.25
SNAP47_Q5SQN1_369_SCSVWHAASGLMGR (UniProt Q5SQN1),-0.275,-0.786
SMC4_Q9NTJ3_110_FSCIIGPNGSGK (UniProt Q9NTJ3),0.12,0.0565
SF3B1_O75533_933_VKPYLPQICGTVLWR (UniProt O75533),-0.0747,-0.0138
SLC43A1_O75387_384_DCVDAPTQGTVLGDAR (UniProt O75387),-0.165,0.0557
RNF169_Q8NCN4_293_SQSCSDTAQER (UniProt Q8NCN4),-0.104,-0.518

Target,probe-labelled cysteine peptide fold change (10 µM),probe-labelled cysteine peptide fold change (50 µM)
SATB2_Q9UPW6_246_ENLSDYCVLGQR (UniProt Q9UPW6),0.203,-0.0129
SLC25A20_O43772_283_AFPANAACFLGFEVAMK (UniProt O43772),-0.17,-0.133
SF3A3_Q12874_411_LHGLNINYNCEICGNYTYR (UniProt Q12874),0.0514,-0.0305
SETD1B_Q9UPS6_1448_DFSFTPTFSEPSGPLLLPVCPLPTGR (UniProt Q9UPS6),-0.238,-0.274
SASS6_Q6UVJ0_94_FIDLLQQCTQEHAK (UniProt Q6UVJ0),0.271,-0.00518
RNH1_P13489_12_SLDIQSLDIQCEELSDAR (UniProt P13489),0.429,1.24
SLC30A1_Q9Y6M5_390_CEDPTSYMEVAK (UniProt Q9Y6M5),-0.0348,-0.326
SCP2_P22307_115_QLIQGGVAECVLALGFEK (UniProt P22307),-1.61,-1.23
SEC23A_Q15436_74_AVLNPLCQVDYR<|>SEC23B_Q15437_74_AVLNPLCQVDYR (UniProt Q15437+Q15436),-0.0552,0.0546
SMS_P52788_256_TCGDVLDNLKGDCYQVLIEDCIPVLKR (UniProt P52788),-0.182,-0.461
RNF213_Q63HN8_700+701_TYTWLGALPVLHCCMELAPR (UniProt Q63HN8),-0.224,-0.555
SEC24B_O95487_1175_GCDNNFIEDVLGYTNFASIPQK (UniProt O95487),0.0382,0.33
RPL7A_P62424_199_KTCTTVAFTQVNSEDK (UniProt P62424),-0.0745,-0.55
SND1_Q7KZF4_826_DIQNTQCLLNVEHLSAGCPHVTLQFADSKGDVGLGLVK (UniProt Q7KZF4),-0.0753,-1.07
SERPINB9_P50453_259_LTAWTKPDCMK (UniProt P50453),-0.11,-0.135
RNF213_Q63HN8_2503_EVLCDHMVDGQPLAEDSGLHIIAACNPYR (UniProt Q63HN8),-0.0995,-0.0384
SLC2A9_Q9NRM0_36_ALLECDHLR (UniProt Q9NRM0),-0.397,-1.08
RPP40_O75818_235_DLQCPVLQSSELEGTPEVSCR (UniProt O75818),0.963,1.11
SIRT2_Q8IXJ6_164_CYTQNIDTLER (UniProt Q8IXJ6),0.115,-0.0404
RNF213_Q63HN8_876_FYELPALSAEIVCR (UniProt Q63HN8),-0.175,0.272
SEC31A_O94979_704_LVACWTK (UniProt O94979),-0.0777,-0.00286
SLC15A4_Q8N697_269_ILTYSCCSQK (UniProt Q8N697),-0.524,-1.45
SLC25A24_Q6NUK1_330_TGQYSGIYDCAK (UniProt Q6NUK1),0.0687,-0.0859
RNF31_Q96EP0_998_ETPAGYAGLCQAHYK (UniProt Q96EP0),0.00152,-0.264
